IC50 is the fitted dose that halves viability relative to control wells, and lower means more sensitive; a fit beyond the top or the lowest dose is shown as a bound at that dose. For AUC the same curve is integrated over the 256-fold range of doses and scaled to a fraction; it is 1 without any effect and falls as sensitivity rises. For some assays here: The top dose, if marked as inferred, is not printed in the source and was worked back from the curve model. For some assays here: Where an entry number is given, a second screen of the drug exists; the two often differ.
Legend:
Experiment in all cases: Viability of human cancer cell lines after 72 h of drug (GDSC screen)
[1] = compound: CCCS(=O)(=O)Nc1ccc(F)c(C(=O)c2c[nH]c3ncc(Cl)cc23)c1F [PLX4720]; conditions: top dose 10 µM
Procedure: (§1)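 Human cancer cell lines in 384-well plates, medium with 10% serum, drug for 72 h over a 256-fold dose range (nine 2-fold or five 4-fold steps up to the top dose). Adherent lines were fixed and stained with the nucleic acid dye Syto60, suspension lines read with resazurin; signal relative to control wells, capped at 0 and 100%. One two-parameter sigmoid per drug and line, fitted in a mixed model over all curves with the slope shared within a line.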

[2] = compound: CC(C)CC(=O)Nc1n[nH]c2c1CN(C(=O)C1CCN(C)CC1)C2(C)C [PHA-793887]; conditions: top dose 10.24 µM
Procedure: as §1

[3] = compound: NC(=O)Nc1sc(-c2ccc(F)cc2)cc1C(N)=O [TPCA-1]; conditions: top dose 20 µM
Procedure: as §1

[4] = compound: C[C@@H](N)c1ccc(C(=O)Nc2ccnc3[nH]ccc23)cc1 [Y-39983]; conditions: top dose 20 µM; top dose inferred
Procedure: as §1

[5] = compound: C/C(=C\c1csc(C)n1)[C@@H]1C[C@@H]2O[C@]2(C)CCC[C@H](C)[C@H](O)[C@@H](C)C(=O)C(C)(C)[C@@H](O)CC(=O)O1 [Epothilone B]; conditions: top dose 0.032 µM; top dose inferred
Procedure: as §1

[6] = screen: GDSC drug entry 1371, top dose inferred

Row | Cell Line | AUC ([1]; screen: GDSC drug entry 1036) | IC50 ([1]; screen: GDSC drug entry 1036) [µM] | AUC [1, 6] | IC50 [1, 6] [µM] | AUC [2] | IC50 [2] [µM] | AUC [3] | IC50 [3] [µM] | AUC [4] | IC50 [4] [µM] | AUC [5] | IC50 [5] [nM]
1 | PCI-15A (head and neck, adherent) | 0.982 | > 10 | 0.986 | > 10 | 0.832 | 6.61 | 0.976 | > 20 | 0.984 | > 20 | 0.609 | 4.01
2 | PCI-30 (head and neck, adherent) | 0.968 | > 10 | 0.983 | > 10 | 0.962 | > 10.2 | 0.942 | > 20 | 0.968 | > 20 | 0.985 | > 32
3 | PCI-38 (head and neck, adherent) |  |  | 0.984 | > 10 | 0.827 | 6.31 | 0.837 | 13.5 | 0.948 | > 20 | 0.581 | 3.34
4 | PE/CA-PJ15 (head and neck, adherent) | 0.977 | > 10 | 0.937 | > 10 | 0.951 | > 10.2 | 0.955 | > 20 | 0.978 | > 20 | 0.953 | > 32
5 | PFSK-1 (medulloblastoma, adherent) | 0.922 | > 10 | 0.983 | > 10 | 0.635 | 1.55 | 0.858 | 18 | 0.892 | > 20 | 0.783 | 14.3
6 | PL4 (pancreas, adherent) | 0.985 | > 10 | 0.983 | > 10 | 0.961 | > 10.2 | 0.946 | > 20 | 0.987 | > 20 | 0.794 | 15.3
7 | PL18 (pancreas, adherent) |  |  | 0.909 | > 10 | 0.906 | > 10.2 | 0.94 | > 20 | 0.979 | > 20 | 0.794 | 14.6
8 | RCM-1 (large intestine, adherent) | 0.959 | > 10 | 0.983 | > 10 | 0.977 | > 10.2 | 0.93 | > 20 | 0.969 | > 20 | 0.792 | 18.1
9 | RD (rhabdomyosarcoma, adherent) |  |  | 0.938 | > 10 | 0.844 | 8.36 | 0.843 | 16.2 | 0.955 | > 20 | 0.64 | 5.07
10 | RERF-GC-1B (stomach, adherent) | 0.985 | > 10 | 0.983 | > 10 | 0.901 | > 10.2 | 0.784 | 9.53 | 0.844 | 16.9 | 0.736 | 10.3
11 | RERF-LC-KJ (lung adenocarcinoma, adherent) | 0.978 | > 10 | 0.986 | > 10 | 0.709 | 2.54 | 0.962 | > 20 | 0.969 | > 20 | 0.601 | 3.83
12 | RERF-LC-MS (lung adenocarcinoma, adherent) | 0.987 | > 10 | 0.968 | > 10 | 0.987 | > 10.2 | 0.849 | 15.7 | 0.972 | > 20 | 0.795 | 15.3
13 | RERF-LC-Sq1 (lung squamous cell carcinoma, adherent) | 0.928 | > 10 | 0.858 | > 10 | 0.875 | > 10.2 | 0.9 | > 20 | 0.961 | > 20 | 0.932 | > 32
14 | RH-41 (rhabdomyosarcoma, adherent) | 0.927 | > 10 | 0.991 | > 10 | 0.897 | 9.05 | 0.897 | 17.6 | 0.992 | > 20 | 0.861 | 20.2
15 | RKN (ovary, adherent) | 0.918 | > 10 | 0.931 | > 10 | 0.857 | 9.14 | 0.868 | > 20 | 0.929 | > 20 | 0.855 | 27.9
16 | RMG-I (ovary, adherent) |  |  | 0.92 | > 10 | 0.775 | 4.76 | 0.77 | 8.88 | 0.983 | > 20 | 0.86 | > 32
17 | RO82-W-1 (thyroid, adherent) | 0.965 | > 10 | 0.909 | > 10 | 0.983 | > 10.2 | 0.973 | > 20 | 0.966 | > 20 | 0.915 | > 32
18 | RPMI-2650 (head and neck, adherent) | 0.942 | > 10 | 0.974 | > 10 | 0.821 | 6.54 | 0.841 | 15.6 | 0.885 | > 20 | 0.524 | 2.34
19 | RPMI-7951 (melanoma, adherent) | 0.88 | 9.84 | 0.965 | > 10 | 0.775 | 3.93 | 0.922 | > 20 | 0.889 | > 20 | 0.416 | 1.18
20 | RT4 (bladder, adherent) | 0.965 | > 10 | 0.986 | > 10 | 0.919 | > 10.2 | 0.465 | 0.995 | 0.963 | > 20 | 0.909 | > 32
21 | RT-112 (bladder, adherent) |  |  | 0.982 | > 10 | 0.804 | 5.58 | 0.757 | 7.35 | 0.848 | 16.6 | 0.365 | 0.824
22 | RVH-421 (melanoma, adherent) | 0.543 | 0.853 | 0.73 | 3.66 | 0.978 | > 10.2 | 0.837 | > 20 | 0.922 | > 20 | 0.773 | 17.3
23 | SAS (head and neck, adherent) | 0.968 | > 10 | 0.965 | > 10 | 0.678 | 2.14 | 0.783 | 9.45 | 0.948 | > 20 | 0.934 | > 32

Reference: the supplement of paper PMC4967469
